Hit rate of the full screen: of about 110,000 compounds, about 230 (0.21%) showed an effect of 50% or more. The list shows a part of the results.
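Note: 30 min substrate incubation versus DMSO and 10 µM JCP410 controls.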

For this assay, the target named is DPAP1 (Plasmodium falciparum, UniProt Q8IIJ9). Nature of the assay: primary screen, percent inhibition; read by cleavage of a fluorogenic dipeptide substrate; higher = more effect of the substance. On the set-up: species or system P. falciparum D10 trophozoite lysates; single well.
Chain of DPAP1 (Q8IIJ9 whole entry, looked up): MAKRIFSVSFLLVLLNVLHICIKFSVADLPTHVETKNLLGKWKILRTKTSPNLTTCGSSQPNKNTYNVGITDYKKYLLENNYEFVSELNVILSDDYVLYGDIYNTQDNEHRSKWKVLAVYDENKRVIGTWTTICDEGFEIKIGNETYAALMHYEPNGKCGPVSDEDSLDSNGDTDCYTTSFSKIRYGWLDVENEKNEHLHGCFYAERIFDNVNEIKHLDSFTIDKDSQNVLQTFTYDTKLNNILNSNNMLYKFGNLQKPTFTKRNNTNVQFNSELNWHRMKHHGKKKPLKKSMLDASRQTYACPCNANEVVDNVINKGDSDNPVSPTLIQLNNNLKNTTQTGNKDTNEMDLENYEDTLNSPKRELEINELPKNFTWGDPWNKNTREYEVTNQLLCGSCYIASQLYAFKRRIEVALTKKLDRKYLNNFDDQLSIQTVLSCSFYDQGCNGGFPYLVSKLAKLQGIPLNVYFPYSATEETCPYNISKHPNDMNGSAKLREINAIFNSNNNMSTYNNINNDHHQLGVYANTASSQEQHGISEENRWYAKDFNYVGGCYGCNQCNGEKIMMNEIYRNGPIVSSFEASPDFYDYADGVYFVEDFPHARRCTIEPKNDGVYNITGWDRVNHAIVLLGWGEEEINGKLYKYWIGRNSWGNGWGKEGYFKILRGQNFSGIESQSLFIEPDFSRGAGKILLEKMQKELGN
Regarding `COc1ccc(N2C(=O)C(Cl)=C(Nc3ccccc3OC)C2=O)cc1`, the “% Inhibition @ 10 uM” value came to 1.03%.

Consider `COc1cc(OC)cc(C(=O)Nc2nc(-c3nnn(-c4cc(OC)cc(OC)c4)c3C)ns2)c1`, for which the “% Inhibition @ 10 uM” value was 2.12%. Consider `O=C(CSc1nnnn1-c1ccccc1)c1ccc(O)cc1`, for which the “% Inhibition @ 10 uM” value is 1.27%. Turning to `CCN(CC)c1ccc(NC(=O)C2CCCCC2C(=O)O)cc1` (stereo not drawn), the “% Inhibition @ 10 uM” value amounted to 1.43%. In the case of `COCCNC(=O)Cn1ncc2ccsc2c1=O`, the “% Inhibition @ 10 uM” value is recorded as -2.92%.

Regarding `O=C(COc1ccc(Cl)cc1)Nc1ccc(S(=O)(=O)N2CCCC2)cc1`, the “% Inhibition @ 10 uM” value stood at 3.8%. On to `CC(=O)OC1CSCC1NC(=O)c1ccccc1` (stereo not drawn), for which the “% Inhibition @ 10 uM” value is -3.52%. `COC(=O)c1nnn(-c2cc(Cl)ccc2OC)c1C(=O)OC`: the “% Inhibition @ 10 uM” value came out at 0.163%. Then `COc1ccc(C(=O)Nc2sc(C)cc2C(=O)O)cc1`, with -0.865%; and `Cc1[nH]c2ccccc2c1C(=O)CN1CCN(Cc2ccc3c(c2)OCO3)CC1`, with -5.4%. Consider `C=C(C)[C@@H]1CC=C(CNc2cc(OC)cc(OC)c2)CC1`, for which the “% Inhibition @ 10 uM” value was found to be 6.54%. Next, `Cc1cc(C(=O)N2CCN(Cc3ccc4c(c3)OCO4)CC2)on1`: 3.2%; `Cc1ccc(NC2=C(Cl)C(=O)N(c3ccccc3)C2=O)cc1`: -1.06%; `COc1cccc(C2=NS(=O)(=O)N(C)C(C(=O)Nc3cc(C)on3)=C2)c1`: 3.92%. Consider `COc1cccc(-c2ccc(C#N)c(SCC(=O)Nc3cccc(F)c3)n2)c1`, for which the “% Inhibition @ 10 uM” value is given as -2.45%. For `N#CCOc1ccccc1-c1c(Cl)nc(Cl)c(=O)n1-c1ccccc1`, the “% Inhibition @ 10 uM” value is listed as -0.25%. As to `COc1cccc(C2CC(C(F)(F)F)n3ncc(C(=O)N4CCc5ccccc5C4)c3N2)c1` (stereo not drawn), the “% Inhibition @ 10 uM” value is 1.72%. As to `CN1C(C(=O)N2CCC3(CC2)OCCO3)=CC(c2ccc(F)cc2)=NS1(=O)=O`, the “% Inhibition @ 10 uM” value is on record as 0.655%. Then `COC(=O)/C(=C/c1ccc2c(c1)OCO2)NC(=O)c1ccccc1Br`, with -5.51%; and `Cc1cc(=O)oc(C)c1C(=O)NCCN(C)Cc1ccccc1`, with 2.79%.

Take `CCOC(=O)N1CCN(C(=O)c2cc(-c3ccc(CC)cc3)[nH]n2)CC1`: the “% Inhibition @ 10 uM” value turned out to be 2.37%. With `O=C(Nc1cccnc1)c1ccc(COCC(F)(F)F)cc1`, the “% Inhibition @ 10 uM” value is -1.33%. Next, `Cc1nnc2n1N=C(c1ccc(-c3cc(Cl)cc(Cl)c3)o1)CS2`: 0.0289%; `FC(F)(F)c1cccc(CN2CCN(Cc3ccccc3)CC2)c1`: -3.56%; `O=C(Cn1ncc2c(Cl)cccc21)N1CCc2ccccc2C1`: 3.84%. In the case of `CN1CCN(S(=O)(=O)c2ccc(Nc3cccc(C(F)(F)F)c3)nc2)CC1`, the “% Inhibition @ 10 uM” value is recorded as -3.56%. For the molecule `CCOc1ccc(CSc2nnc(-c3cccnc3)n2-c2ccccc2)cc1`, the “% Inhibition @ 10 uM” value was determined as 3.27%. In the case of `CC[C@H](NC(=O)[C@H](Cn1cccn1)NC(=O)c1ccc(-c2ccccc2Cl)cc1)C(=O)c1nc2ccccc2o1`, the “% Inhibition @ 10 uM” value is listed as -8.81%. Then `COc1ccc(S(=O)(=O)Nc2ccccc2C(C)C)cc1OC`, with -5.13%; and `COC(=O)C1=C(NC(=O)c2cccc(C)c2)CCS1`, with -3.69%; and `CCC1CCCCN1CCNC(=O)C1CCN(S(=O)(=O)c2cccc3nsnc23)CC1` (stereo not drawn), with -9.18%. Then `CCCC(=O)Nc1cccc(C(=O)NCC(C)C)c1`, with -2.94%. Then `CC1CCc2c(sc(NC(=O)C(C)Oc3cccc(Cl)c3)c2C(N)=O)C1` (stereo not drawn), with 2.45%; and `CCOC(=O)N1CCN(C(=O)C2CC(=O)N(Cc3ccc(OC)cc3)C2)CC1` (stereo not drawn), with -5.43%. Take `O=C(NCc1nnc(S)n1-c1ccccc1)c1ccccc1F`: the “% Inhibition @ 10 uM” value is recorded as 4.95%. Then `Cc1ccc(C2CC(=O)NC(SCC(=O)Nc3ccccc3C)=C2C#N)cc1` (stereo not drawn), with 2.84%; and `Cc1cc(Cl)ccc1N(CC(=O)NCc1ccccc1)S(C)(=O)=O`, with -10.5%. Take `COc1cc2c3c(c1OC)C1(C=CC(=O)C=C1)CC3N(C(=O)CCC(=O)O)CC2` (stereo not drawn): the “% Inhibition @ 10 uM” value is reported as -1.33%. As to `Cc1ccc(/C=C(\C#N)c2nc(-c3ccc(Br)cc3)cs2)cc1`, the “% Inhibition @ 10 uM” value is reported as -0.268%. For `CCCc1nc(N)c(C#N)c(-c2ccc(Cl)cc2)c1CC`, the “% Inhibition @ 10 uM” value was found to be 4.38%. For `COc1ccc(C)cc1NCc1ccc(SC)cc1`, the “% Inhibition @ 10 uM” value was 2.36%.

With `CC1=C(C(N)=O)C(c2ccc(OCc3ccccc3)cc2)n2ncnc2N1` (stereo not drawn), the “% Inhibition @ 10 uM” value was -7.35%. Regarding `COc1cc(C2CC(C(F)(F)F)n3ncc(C(=O)N4CCCCC4)c3N2)cc(OC)c1OC` (stereo not drawn), the “% Inhibition @ 10 uM” value is given as 0.147%.

Regarding `CC(C)(C)NC(=O)c1ccccc1-c1ccccc1C(=O)O`, the “% Inhibition @ 10 uM” value worked out at 4.63%. Turning to `Cc1cc(C(=O)Nc2cccnc2Cl)no1`, the “% Inhibition @ 10 uM” value was -1.84%. `O=C(NCc1nnc(S)n1-c1cccc(Cl)c1)c1ccc(S(=O)(=O)N2CCOCC2)cc1`: the “% Inhibition @ 10 uM” value came to 22.9%. Regarding `COc1cc(CNCCO)cc(Cl)c1OCc1ccccc1F`, the “% Inhibition @ 10 uM” value is -6.27%. On to `COc1ccc(-c2nonc2NC(=O)CC(C)C)cc1`, for which the “% Inhibition @ 10 uM” value is -6.56%. With `COc1cccc(C(=O)N(Cc2ccc(N(C)C)cc2)C2CCS(=O)(=O)C2)c1` (stereo not drawn), the “% Inhibition @ 10 uM” value is 2.92%. In the case of `O=C(Nc1cccc([N+](=O)[O-])c1)c1cccc(S(=O)(=O)Nc2ccc(Br)cc2)c1`, the “% Inhibition @ 10 uM” value stood at 1.64%. On to `COc1cccc(S(=O)(=O)Nc2ccc(C(=O)N3CCC(Cc4ccccc4)CC3)cc2)c1`, for which the “% Inhibition @ 10 uM” value is reported as -7.16%. Then `CNC(=O)Cn1nc(C)n2c(cc3c(OC)cccc32)c1=O`, with -7.22%; and `O=C(c1ccc(CSc2ccc(Oc3ccccc3)cc2)cc1)N1CCOCC1`, with 1.42%.

As for `Cc1cc(N2CCN(c3ccccc3)CC2)nc(-c2ccccc2O)n1`, the “% Inhibition @ 10 uM” value was -7.19%.

As to `CCN(CC)CC#CC(C)(C)OC(C)=O`, the “% Inhibition @ 10 uM” value is recorded as -6.18%. For the molecule `COc1ccc2cc(C(=O)O)n(CC(=O)c3ccccc3)c2c1`, the “% Inhibition @ 10 uM” value is on record as -5.37%. For `Cc1ccc(-n2nc(C(=O)O)c(C)c(C#N)c2=O)cc1Cl`, the “% Inhibition @ 10 uM” value is on record as 4.28%. Then `COc1ccc(C(=O)Nc2ccc(Cl)cc2C)cc1`, with 0.273%; and `COc1cccc(N2C(=O)C3CC=CCC3C2=O)c1` (stereo not drawn), with -8.07%; and `c1ccc(CNC2CCCc3ccccc32)nc1` (stereo not drawn), with 3.82%. Then `CCOc1ccc(C(=O)NC(C)C23CC4CC(CC(C4)C2)C3)cc1` (stereo not drawn), with 0.316%.

Consider `Cc1[nH]c2ccccc2c1CCNS(=O)(=O)c1ccc2oc(=O)ccc2c1`, for which the “% Inhibition @ 10 uM” value was -5.53%. `Clc1ccc2nc(NCc3ccc4c(c3)OCO4)c3nncn3c2c1`: the “% Inhibition @ 10 uM” value amounted to 2.76%. Turning to `CC(C)Oc1ccc(C(=O)N(Cc2cccc(F)c2)C2CCS(=O)(=O)C2)cc1` (stereo not drawn), the “% Inhibition @ 10 uM” value is -3.12%. Consider `Cc1cc(=O)n2nc(N(C)CC(=O)NCCc3cccs3)sc2n1`, for which the “% Inhibition @ 10 uM” value came out at 3%.

Regarding `Cc1c(Br)c(C(F)(F)F)nn1CC(=O)N1CCc2ccccc2C1`, the “% Inhibition @ 10 uM” value was -1.35%.

As to `NS(=O)(=O)c1cc(C(=O)Nc2ccccc2)ccc1Br`, the “% Inhibition @ 10 uM” value is given as -4.08%. As for `Cc1ccc2c(c1)c1c3n2CC(=O)N(C(C)c2ccccc2)C3CCC1` (stereo not drawn), the “% Inhibition @ 10 uM” value was determined as 3.47%. For `CC[C@H](NC(=O)[C@H](CC(C)C)NC(=O)N1CCOCC1)C(=O)C(=O)NCc1ccccc1`, the “% Inhibition @ 10 uM” value is recorded as -0.214%. `Cc1ccc(NC(=O)c2cccc([N+](=O)[O-])c2C)cc1Cl`: the “% Inhibition @ 10 uM” value is -7.11%. As to `Cc1ccn(-c2ccc3cc(-c4ccccc4)c(=O)oc3c2)n1`, the “% Inhibition @ 10 uM” value is -5.65%. As for `C/C(Cl)=C/CSc1nc2c(c(=O)[nH]c(=O)n2C)n1C/C=C(/C)Cl`, the “% Inhibition @ 10 uM” value is listed as 4.09%. For the molecule `Cc1ccnc(NC(=O)CSc2nnc3c4ccccc4n(C)c3n2)c1`, the “% Inhibition @ 10 uM” value is on record as -3.69%. As to `CCCNC(=O)CN(c1ccc(OC)cc1)S(C)(=O)=O`, the “% Inhibition @ 10 uM” value was -2.74%. Consider `O=C1N/C(=C/c2ccc(N3CCCC3)c(F)c2)C(=O)N1Cc1ccccc1F`, for which the “% Inhibition @ 10 uM” value came out at 0.161%. In the case of `CCOc1cc(C(=O)NCCn2c(C)cc3ccccc32)cc(OCC)c1OCC`, the “% Inhibition @ 10 uM” value is reported as -2.24%.

As for `CCCOc1ccc(C(O)(CCN2CCCCC2)c2ccccc2OC)cc1` (stereo not drawn), the “% Inhibition @ 10 uM” value is 1.84%. As for `COc1ccc(N2C(=O)CSC2c2ccc(Cl)cc2)cc1` (stereo not drawn), the “% Inhibition @ 10 uM” value was 3.53%. Then `CCN1CCCC1CNC(=O)c1cc2c(-c3ccc(Cl)cc3)nn(C)c2s1` (stereo not drawn), with -8.9%; and `C=CCn1c(CCCNC(=O)c2ccc(OC)c(OC)c2)nc2ccccc21`, with 0.121%; and `Cc1cc2cc(OCC(=O)O)ccc2n1C`, with 3.88%. In the case of `O=C(NCCOCc1ccccc1)C(c1ccccc1)c1ccccc1`, the “% Inhibition @ 10 uM” value worked out at 20.5%.

With `COc1cccc(C(O)(c2ccccn2)c2ccccn2)c1`, the “% Inhibition @ 10 uM” value is recorded as 8.81%. `CCOc1ccc(C(=O)NCCc2ccc(S(N)(=O)=O)cc2)cc1`: the “% Inhibition @ 10 uM” value amounted to 0.323%. For `CCOc1ccc2oc(=O)cc(CN(Cc3ccco3)CC3CCCO3)c2c1` (stereo not drawn), the “% Inhibition @ 10 uM” value is -1.71%. For `Cc1nnc(O)nc1NCCCN(C)C`, the “% Inhibition @ 10 uM” value is listed as -4.84%.

`c1ccc(-c2cc(-c3ccccc3)nc(N3CCCCC3)n2)cc1`: the “% Inhibition @ 10 uM” value was -0.969%. Consider `O=C(Nc1ccccc1Cl)c1cccc(Br)c1`, for which the “% Inhibition @ 10 uM” value is listed as -1.92%. In the case of `O=C(Nc1ccc(Cl)cc1F)C1CC(=O)N(c2ccc(Br)cc2)C1` (stereo not drawn), the “% Inhibition @ 10 uM” value was 4.05%.

With `Cc1ccc2c(Cl)c(C(=O)Nc3cc(=O)n(C)c(=O)n3C)sc2c1`, the “% Inhibition @ 10 uM” value is on record as -2.8%. Consider `O=c1c2c([nH]c(=S)n1-c1ccccc1)-c1ccccc1CC21CCCC1`, for which the “% Inhibition @ 10 uM” value was -0.712%. Turning to `Cc1ccc(-c2noc(CCC(=O)NCCc3cccc(C)c3)n2)cc1`, the “% Inhibition @ 10 uM” value turned out to be 2.42%.

With `COCCCN1C(=O)C(O)=C(C(=O)c2ccc(C)cc2)C1c1ccccc1` (stereo not drawn), the “% Inhibition @ 10 uM” value was -3.34%. `CCOc1cc(Br)ccc1S(=O)(=O)N1CCC(C(N)=O)CC1`: the “% Inhibition @ 10 uM” value is reported as -7.17%. Next, `CCN(CC)/C(=N\O)c1ccc(Br)cc1`: -2.63%; `Clc1ccccc1OCCCCN1CCCCC1`: 3%; `CSc1sc(SC)c(C[n+]2ccccc2)c1C[n+]1ccccc1`: 1.66%. For the molecule `O=C(c1cc(Cl)cc(Cl)c1)N1CCCCCC1`, the “% Inhibition @ 10 uM” value is reported as 3%.

As to `CCN1CCCC1CNC(=O)Cn1cc2c(n1)CCC(C)C2` (stereo not drawn), the “% Inhibition @ 10 uM” value came to 4.95%. For `COC(=O)C1CCCN1Cc1ccc(Cl)cc1` (stereo not drawn), the “% Inhibition @ 10 uM” value is listed as 3.15%. Then `Cc1c(C(=O)Nc2ccccc2)sc2nc3n(c(=O)c12)CCCCC3`, with -3.71%.

On to `Cc1cc(NC(=O)CSc2nc3c(c(=O)n2CCc2ccccc2)SC(C)C3)no1` (stereo not drawn), for which the “% Inhibition @ 10 uM” value was -2.32%.

The values above are taken from article PMC6919601, “Identification of Plasmodium dipeptidyl aminopeptidase allosteric inhibitors by high throughput screening” (PLoS ONE, 2019).
